The values below come from publication PMC5892938.

Some of the results follow. At the low end of the ranking, values are background and their order means little.

In this assay the target is GST-SBP-SLBP (stem-loop binding protein) (UniProt Q14493). The experiment in a line: targeted RNA Bind-n-Seq.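 Also: DESeq read counts versus GST-SBP nonspecific binding control pulldown.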 As to conditions: RBNS binding buffer: 25 mM Tris pH 7.5, 150 mM KCl, 3 mM MgCl2, 0.1% Tween, 0.5 mg/mL BSA, 1 mM DTT; 27 nM protein, 750 pM RNA pool; temperature not stated; high values mean tight binding.
On to “GGUCACGUCUCAAUCAACUCCUAAGAGGGGGGGAAAACCCCUUUACCCUCCGUUUCAACAGCUCGCAGUCAAG”, for which the binding signal (log2 fold change) is -0.21.
Take “GGUCACGUCUCAAUCAACUCUAUCCCCAGGGAAAACCCUGGUAAUUUCAACAGCUCGCAGUCAAG”: the binding signal (log2 fold change) was -0.217.
Turning to “GGUCACGUCUCAAUCAACUCUAUGUCCAGGGAAAUCCCUGGUUUUCUCAACAGCUCGCAGUCAAG”, the binding signal (log2 fold change) is -0.316.
Under “GGUCACGUCUCAAUCAACUCAAUUUCCAGGGAAAACCCUGGCUUUUUCAACAGCUCGCAGUCAAG” stands -0.103; under “GGUCACGUCUCAAUCAACUCAUCCCCCAGGGAAAGCCCUGGUAUUCUCAACAGCUCGCAGUCAAG”, 0.149; under “GGUCACGUCUCAAUCAACUCAACUUCCAGGGAAAUCCCUGGUAAUUUCAACAGCUCGCAGUCAAG”, 0.151.
The value for “GGUCACGUCUCAAUCAACUCUUCUUCCAGGGAAACCCCUGGCUAACUCAACAGCUCGCAGUCAAG” was -0.0649; that for “GGUCACGUCUCAAUCAACUCAUUCCCCAGGGAAAACCCUGGUUUAUUCAACAGCUCGCAGUCAAG” was 0.256; that for “GGUCACGUCUCAAUCAACUCAUCGUCCAGGGAAAUCCCUGGUUAAUUCAACAGCUCGCAGUCAAG” was -0.359.
Consider “GGUCACGUCUCAAUCAACUCUUUCUCAGGAGUUUACUCCUGUAUUCUCAACAGCUCGCAGUCAAG”, for which the binding signal (log2 fold change) was found to be 0.0638.
The value for “GGUCACGUCUCAAUCAACUCUACUUCAGGAGUUUUCUCCUGUUAUGUCAACAGCUCGCAGUCAAG” was -0.0174; that for “GGUCACGUCUCAAUCAACUCAAUCUCAGGAGUUUCCUCCUGCUUUCUCAACAGCUCGCAGUCAAG” was 0.134.
As for “GGUCACGUCUCAAUCAACUCAGUUUCCAGGGAAAACCCUGGCAUUUUCAACAGCUCGCAGUCAAG”, the binding signal (log2 fold change) turned out to be 0.0243.
As for “GGUCACGUCUCAAUCAACUCUUCUUCCAGGGAAACCCCUGGCAUUUUCAACAGCUCGCAGUCAAG”, the binding signal (log2 fold change) was -0.0325.
As to “GGUCACGUCUCAAUCAACUCCCUCGAGGGGGGGAAAACCCCUUUACCCUCACCGUCAACAGCUCGCAGUCAAG”, the binding signal (log2 fold change) came to 0.181.
Under “GGUCACGUCUCAAUCAACUCUUCGCCCAGGGAAAACCCUGGUUUUUUCAACAGCUCGCAGUCAAG” stands -0.0795.
Regarding “GGUCACGUCUCAAUCAACUCUUCUCCCAGGGAAAGCCCUGGUAUACUCAACAGCUCGCAGUCAAG”, the binding signal (log2 fold change) was -0.189.
“GGUCACGUCUCAAUCAACUCUAUCCCCAGGGAAAACCCUGGCAAUCUCAACAGCUCGCAGUCAAG”: the binding signal (log2 fold change) is -0.0525.
The value for “GGUCACGUCUCAAUCAACUCUCUAGAGGGGGGGAAAACCCCUUUGCCCUCAUCGUCAACAGCUCGCAGUCAAG” was 0.207; that for “GGUCACGUCUCAAUCAACUCUUUCUCAGGAGUUUUCUCCUGCAAAUUCAACAGCUCGCAGUCAAG” was 0.0109.
Consider “GGUCACGUCUCAAUCAACUCUUUCCCCAGGGAAAUCCCUGGUUAACUCAACAGCUCGCAGUCAAG”, for which the binding signal (log2 fold change) amounted to 0.0282.
As for “GGUCACGUCUCAAUCAACUCAACUCCAGGAGUUUACUCCUGUUAUGUCAACAGCUCGCAGUCAAG”, the binding signal (log2 fold change) was 0.0826.
With “GGUCACGUCUCAAUCAACUCAUUUUCCAGGGAAACCCCUGGCUUUUUCAACAGCUCGCAGUCAAG”, the binding signal (log2 fold change) was -0.195.
Take “GGUCACGUCUCAAUCAACUCAACUCCCAGGGAAAACCCUGGCUAUCUCAACAGCUCGCAGUCAAG”: the binding signal (log2 fold change) is -0.0567.
“GGUCACGUCUCAAUCAACUCUACGCCAGGAGUUUACUCCUGUAUAUUCAACAGCUCGCAGUCAAG”: the binding signal (log2 fold change) is -0.13.
“GGUCACGUCUCAAUCAACUCAUUUUCAGGAGUUUACUCCUGCUUUUUCAACAGCUCGCAGUCAAG”: the binding signal (log2 fold change) was -0.305.
Take “GGUCACGUCUCAAUCAACUCAAUUCCCAGGGAAAACCCUGGCAAAUUCAACAGCUCGCAGUCAAG”: the binding signal (log2 fold change) is 0.119.
Regarding “GGUCACGUCUCAAUCAACUCAAUCCCCAGGGAAAUCCCUGGCAUUCUCAACAGCUCGCAGUCAAG”, the binding signal (log2 fold change) turned out to be 0.318.
As for “GGUCACGUCUCAAUCAACUCAGUUUCAGGAGUUUGCUCCUGUAUAUUCAACAGCUCGCAGUCAAG”, the binding signal (log2 fold change) was -0.129.
On to “GGUCACGUCUCAAUCAACUCAUCUCCCAGGGAAAACCCUGGUAUAUUCAACAGCUCGCAGUCAAG”, for which the binding signal (log2 fold change) was 0.374.
For the sequence “GGUCACGUCUCAAUCAACUCUACUCCAGGAGUUUCCUCCUGCAAUUUCAACAGCUCGCAGUCAAG”, the binding signal (log2 fold change) was found to be 0.0157.
Turning to “GGUCACGUCUCAAUCAACUCAGUUUCAGGAGUUUACUCCUGCUUUCUCAACAGCUCGCAGUCAAG”, the binding signal (log2 fold change) stood at 0.209.
Under “GGUCACGUCUCAAUCAACUCUAUCUCAGGAGUUUACUCCUGUUUAUUCAACAGCUCGCAGUCAAG” stands -0.000257; under “GGUCACGUCUCAAUCAACUCAGUUCCAGGAGUUUGCUCCUGCUUUUUCAACAGCUCGCAGUCAAG”, -0.112; under “GGUCACGUCUCAAUCAACUCAUCUUCCAGGGAAAGCCCUGGCGUUUUCAACAGCUCGCAGUCAAG”, -0.276.
The value for “GGUCACGUCUCAAUCAACUCUAUCCCAGGAGUUUUCUCCUGUUAACUCAACAGCUCGCAGUCAAG” was 0.0384; that for “GGUCACGUCUCAAUCAACUCAACUUCCAGGGAAAUCCCUGGUUUUCUCAACAGCUCGCAGUCAAG” was 0.25.
With “GGUCACGUCUCAAUCAACUCAUCCCCCAGGGAAAACCCUGGCAAAUUCAACAGCUCGCAGUCAAG”, the binding signal (log2 fold change) was -0.094.
